Assay results published in PubChem BioAssay AID1963576 (National Center for Advancing Translational Sciences (NCATS), 2024).
Screen size: about 46,000 compounds; about 60 (0.1%) were called active. Another 3% or so got no clear call; they are omitted. Calls follow the shape of the dose curve; as a rule, active = well fitted inhibition curve with a large enough effect; inconclusive = small, poorly fitted or top-dose-only effect; inactive = no such curve, though single readings can be large or run the other way. The list shows a part of the results.

Assay: Primary qHTS assay for Inhibitors of ovarian cancer metastasis using an organotypic tumor microenvironment (TME) model. Also: nearly all actives have a fitted effect of over 65% in size.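 As to activity change, negative = inhibition: plate controls were DMSO wells for no effect and tomatine positive control wells for full effect.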
Conditions: SKOV3ip1-GFP adhesion/invasion on 3D omental model, fluorescence; series mostly up to 45.8 µM; activity change, negative = inhibition: at the top concentration
Summary of the method: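 qHTS, 4-pt dose (0.36-46 umol/L); SKOV3ip1-GFP, 1,200 cells/well, no FBS; primary omental fibroblast/mesothelial co-culture 48 h pre-grown; 2 h RT + 16 h 37 C; PBS wash, 4% PFA; GFP count 488/509 nm.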

Activity change, negative = inhibition, inactive:
Cc1ccc(C(=O)N(Cc2ccco2)c2ccccn2)cc1 -7.76%, COc1ccc(CC(=O)NCC(c2cccs2)S(=O)(=O)c2ccc(F)cc2)cc1 (stereo unspecified) 4.08%, Cc1ccc(CNC(=O)c2c(Nc3ccccc3C)sc(C(=O)c3ccc(F)cc3)c2N)cc1 -21.9%, COc1cccc(-c2nn(C)c3sc(C(=O)NCc4ccc(OC)cc4OC)cc23)c1 -14.6%, COc1ccccc1C(=O)Nc1ccc(C(=O)OCc2cc(=O)n3c4c(sc3n2)CCCC4)cc1 -18.5%, CCOc1ccc(C2C(C(N)=O)=C(C)Nc3nc(SCc4ccccc4F)nn32)cc1 (stereo unspecified) 3.83%, Cc1ccc(CNC(=O)c2c(Nc3c(C)cccc3C)sc(C(=O)c3ccccc3)c2N)cc1 15.3%, Cc1cccc(NC(=O)Cn2c(=O)n(Cc3ccccc3)c(=O)c3oc4ccccc4c32)c1C 2.93%, CCc1ccc(C2CC(=O)Nc3c2c(=O)nc2c(C)cccn32)cc1 (stereo unspecified) 1.6%, CC(C)c1ccc(NC(=O)c2ccc(CN3CC(=O)N4CCCCC4C3=O)cc2)cc1 (stereo unspecified) 10.8%, O=C(O)CCn1ccc2cc(S(=O)(=O)N3CCCCCC3)ccc21 0.457%, Cc1nc2nc(NCc3ccc(Br)cc3)[nH]n2c(=O)c1Cc1ccccc1 1.03%, CCCCOc1ccc(C(=O)Nc2cccc(-c3nc4ccccc4o3)c2C)cc1 -4.59%, Cc1ccc(-n2c(=O)c3oc4ccccc4c3n(Cc3cccc(F)c3)c2=O)cc1C 7.07%, Cc1cccn2c(=O)c(C(=O)N3CCN(c4ccccc4)CC3)cnc12 1.14%, COc1ccc(OC)c(NC(=O)C2=C(C)C(=O)OC23CCN(C(C)C)CC3)c1 79.5%, CC(C)c1ccc(NC(=O)c2ccc(=O)n(Cc3ccccc3)c2)cc1 -9.53%, CCCC(=O)Nc1ccc2oc(-c3ccc(O)c(Br)c3)nc2c1 -6.24%, Cc1ccc(N(CC2=NCCN2)c2cccc(O)c2)cc1 -3.72%, CCC(O)c1nc2ccccc2n1Cc1cc(C)ccc1C (stereo unspecified) 3.09%, Cc1ccc(C)c(N2CCN(C(=O)Cn3nc(C)c4sc5ccccc5c4c3=O)CC2)c1 13%, COc1ccccc1N(CC(=O)Nc1ccccc1C(F)(F)F)S(=O)(=O)c1ccc(C)cc1 0.353%, COc1ccccc1NS(=O)(=O)c1cn(C)c(C)n1 6.81%, COc1ccc(-c2nc(CSCC(=O)NCCC(C)C)c(C)o2)cc1OC 9.74%, O=C(CC1Sc2ccccc2NC1=O)Nc1cccc(C(F)(F)F)c1 (stereo unspecified) -28.1%, Cc1ccc(NC(=O)C2CCN(S(=O)(=O)c3ccc4c(c3)CCCC(=O)N4)CC2)cc1N(C)C -1.89%, COc1ccc(OC)c(NC(=O)C2CCN(S(=O)(=O)c3ccc4c(c3)CC(C)N4C(C)=O)CC2)c1 (stereo unspecified) 6.01%, CCOc1ccc(NC(=O)CSc2nc3ccsc3c(=O)n2CCC(C)C)cc1 -4.51%, Cc1cc(Nc2cccc(Cl)c2)nc2ccc(NC(=O)COc3ccc(Cl)cc3)cc12 13.1%, COc1ccc(OC)c(CNC(=O)NCc2noc3ccc(C)cc23)c1 -9.35%, CCC1CN(C(=O)N2CCC(C(=O)NCc3cccc(F)c3)CC2)c2cc(C)ccc2O1 (stereo unspecified) -7.2%, Cc1ccc(-n2nc(C)c3c(C(=O)NCCc4ccc(S(N)(=O)=O)cc4)cc(C)nc32)cc1 7.91%, O=C(CN1C(=O)c2cccnc2Sc2ccccc21)Nc1cc(F)ccc1F 7.28%, CCN1C(=O)c2ccccc2S(=O)(=O)c2ccc(C(=O)NCc3ccccc3OC)cc21 1.77%, O=C(CSc1cn(CC(=O)N2CCCCC2)c2ccccc12)NCc1ccccc1Cl -6.65%, CC(C)c1ccc(NC(=O)c2cc3c(=O)[nH]c4ccccc4c3n2C)cc1 3.23%, Cc1ccc2oc(-c3ccc(NC(=O)c4oc5ccc(Cl)cc5c4C)cc3)nc2c1 -0.0593%, Cc1ccc(-n2nc(C)c3c(C(F)(F)F)cc(-c4cccnc4)nc32)cc1C 4.69%, COc1ccc(NC(=O)Nc2cc(C(=O)NCc3ccc(C)cc3)ccc2N2CCCC2)cc1 2.74%, O=C(c1cnn(-c2ccc(F)cc2)c1-n1cccc1)N1CCN(c2ccccc2)CC1 -17.3%, Cc1cccc(NC(=O)Cn2c(SCC(=O)NCc3ccccc3)nc3ccccc32)c1C 2.55%, COc1ccc(CNC(=O)C2(c3cccs3)CCOCC2)cc1 -4.39%, CCOC(=O)c1ccc(N=C2SC(C(=O)Nc3ccccc3)CC(=O)N2C)cc1 (stereo unspecified) -9.34%, CCN(CC)c1ccc(C2C(C(N)=O)=C(C)Nc3nc(SCc4ccccc4Cl)nn32)cc1 (stereo unspecified) -0.153%, COc1ccc(C)cc1NS(=O)(=O)c1ccc2oc(=O)c3ncn(C)c3c2c1 1.78%, CCOc1ccc(NC(=O)c2c(NCc3cccs3)sc3c2CCC(C)C3)cc1 (stereo unspecified) 12.1%, CCc1ccc(CCOc2ccc(CC3SC(=O)NC3=O)cc2)nc1 (stereo unspecified) -5.68%, CCOC(=O)C1=C(CN2CCN(c3ccc(C)cc3C)CC2)NC(=O)NC1c1ccc(OC)cc1 (stereo unspecified) -6.09%, CCN(CC)S(=O)(=O)c1cccc(C(=O)Nc2ccccc2C(=O)Nc2ccc(OC)cc2)c1 -9.67%, O=C(CCCCCCC(=O)Nc1cccnc1)NO -19%, Cc1ccccc1-c1nc(CN2CCC(C(=O)NC(C)C)CC2)c(C)o1 1.02%, COc1ccc(Cl)cc1NC(=O)CCn1nc(C)cc1C -3.25%, CN(C)c1ccc(C(=O)NCc2ccc3c(c2)CCN3C(=O)c2ccc(Cl)cc2)cc1 2.96%, Cc1cccc(CCNC(=O)CCc2c(C)nc3c(c(C)nn3-c3ccccc3)c2C)c1 3.55%, COc1ccc2c(c1)CC(C(=O)Nc1cc(OC)c(OC)c(OC)c1)CO2 (stereo unspecified) 0.812%, CCc1cccc(C)c1NC(=O)c1cc(S(=O)(=O)N2CCN(c3ccccc3)CC2)ccc1F 6.98%, CCOC(=O)c1cc2c(=O)n3ccccc3nc2n(C(C)C)c1=NC(=O)c1c(-c2c(F)cccc2Cl)noc1C 5.02%, COc1ccc(OC)c(CNc2ncnc3onc(C)c23)c1 1.3%, COc1ccc(C(=O)NCc2ccc3c(c2)CCN3C(=O)c2ccc(Cl)cc2)c(OC)c1 3.28%, CCC(Cc1ccccc1)NC(=O)c1cccc(Nc2nc3ccccc3nc2-n2nc(C)cc2C)c1 (stereo unspecified) -4.63%, CC(C)OCCCn1c(SCc2ccccc2Cl)nc2c(sc3ccccc32)c1=O -23.3%, Cc1cccc(NC(=O)c2ccc(Cn3nc(N4CCN(c5ccccc5)CC4)ccc3=O)o2)c1C -19.3%, CCOc1ccc(NC(=O)N2CCN(C(=O)c3nsc4ccccc34)CC2)cc1 -15.4%

outcome, inactive:
O=C(CN1CCN(Cc2ccccc2F)C1=O)NCc1ccccc1, COc1ccccc1NC(=O)c1cnn(-c2ccccc2)c1-n1cccc1, Cc1cc(C)c(NC(=O)C(=O)NCCc2csc(-c3ccc(F)cc3)n2)c(C)c1, CSc1ccc(CCNC(=O)c2csc3c2CCCCC3)cc1, CN(C)c1ccc(CNC(=O)c2ccc3nc(Cc4ccccc4)oc3c2)cc1, Cc1ccc(C(=O)c2c(N)c(C(=O)Nc3cccc(C(F)(F)F)c3)c3ccccn23)cc1, O=C(CSc1nc2c(oc3ccccc32)c(=O)n1-c1ccccc1)Nc1ccc(F)c(Cl)c1, Fc1ccc(N2CCN(c3ncnc4onc(-c5ccc(Cl)cc5)c34)CC2)cc1, COc1cccc(C2C(C(N)=O)=C(C)Nc3ncnn32)c1 (stereo unspecified), CCc1ccc(-n2c(=O)c3ccccc3n(Cc3ccccc3C#N)c2=O)cc1, O=C(c1ccc2c(c1)N(Cc1ccc(Cl)cc1)C(=O)c1ccccc1S2(=O)=O)N1CCOCC1, CCCCC(CC)CNC(=O)CCCCCn1c(=O)[nH]c2ccsc2c1=O (stereo unspecified), CCOc1ccccc1NC(=O)Cn1c(=O)n(Cc2ccco2)c(=O)c2sc3ccccc3c21, CCOC(=O)c1c(NC(C)=O)c2c3c(sc2n1Cc1cc(C)ccc1C)CCCC3, COc1ccc(N2CC(NC(=O)COc3cccc(C)c3)CC2=O)cc1OC (stereo unspecified), COc1ccc(OC)c(NC(=O)C(C)n2c(=O)c(-c3ccccc3NC(C)=O)nc3ccccc32)c1 (stereo unspecified), CCc1ccc(NC(=O)CC2C(=O)N(c3ccc(F)cc3)C(=O)N2Cc2ccc(F)cc2)cc1 (stereo unspecified), COc1ccccc1CNC(=O)c1cc(S(=O)(=O)N2CCCC(C)C2)cn1C (stereo unspecified), CCCCN(C)CCCNC(=O)c1cn(CC)c2ccc(S(=O)(=O)N3CCc4ccccc4C3)cc2c1=O, CCOc1ccc(-c2cn3nc(CC(C)C)sc3n2)cc1, O=C(NCCSCc1ccccc1)C1CCN(S(=O)(=O)Cc2ccccc2)CC1, Cc1ccc(NC(=O)c2ccc(C)c(S(=O)(=O)N3CCCCCC3)c2)cc1, Clc1ccc(CNc2ncnc3onc(-c4ccc(Cl)cc4)c23)cc1, CN1C(=O)c2ccccc2Sc2ccc(NC(=O)N3CCN(c4cccc(Cl)c4)CC3)cc21, COc1cc(OC)cc(C(=O)Nc2cccc(-c3cn4ccsc4n3)c2)c1, CCC1CCCCN1C(=O)Cn1c(=O)n(-c2ccc(Cl)c(Cl)c2)c(=O)c2c(C)c(C(=O)N(C)C)sc21 (stereo unspecified), CCC1CN(C(=O)N2CCC(C(=O)NCCC3=CCCCC3)CC2)c2ccccc2O1 (stereo unspecified), CCOc1ccc(NC(=O)CSc2cn(CC(=O)N3CCOCC3)c3ccccc23)cc1, Cc1ccc(N(CC(=O)N2CCN(c3cccc(C)c3C)CC2)S(=O)(=O)c2c(C)nn(C)c2C)cc1, CCN(c1cc(C)cc(C)c1)S(=O)(=O)c1nnc(NC(=O)c2ccccc2C)s1, CC(=O)Nc1c(C)nn(-c2ccccc2)c1N1CCC(C(=O)NCc2cccc(F)c2)CC1, CCOc1ccc(NC(=O)C2CCC(CNS(=O)(=O)c3ccc4c(c3)CCCC(=O)N4)CC2)cc1 (stereo unspecified), COc1ccc(CCNC(=O)c2cc(=O)[nH]c3ccc(S(=O)(=O)N4CCCCC4)cc23)cc1OC
